{"source": "paper PMC5892938", "note": "This is one part of the list. At the low end of the ranking the order means little."}
{"biological_target": "GST-SBP-SLBP (stem-loop binding protein) (UniProt Q14493)", "experiment": "targeted RNA Bind-n-Seq;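 further: DESeq read counts versus GST-SBP nonspecific binding control pulldown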", "settings": "RBNS binding buffer: 25 mM Tris pH 7.5, 150 mM KCl, 3 mM MgCl2, 0.1% Tween, 0.5 mg/mL BSA, 1 mM DTT; 27 nM protein, 750 pM RNA pool; temperature not stated; high values mean tight binding"}
{"sequence": "GGUCACGUCUCAAUCAACUCCUUCGAGGGGGGGAAAACCCCUUUACCCUCUAAAUCAACAGCUCGCAGUCAAG", "binding signal (log2 fold change)": -0.106}
{"sequence": "GGUCACGUCUCAAUCAACUCUUCUGAGGGGGGGAAAACCCCUUUACCCUCCAAAUCAACAGCUCGCAGUCAAG", "binding signal (log2 fold change)": -0.147}
{"sequence": "GGUCACGUCUCAAUCAACUCAAUUCCCAGGGAAACCCCUGGUUUAUUCAACAGCUCGCAGUCAAG", "binding signal (log2 fold change)": -0.223}
{"sequence": "GGUCACGUCUCAAUCAACUCAAUUUCCAGGGAAAUCCCUGGUAUAUUCAACAGCUCGCAGUCAAG", "binding signal (log2 fold change)": 0.102}
{"sequence": "GGUCACGUCUCAAUCAACUCUUUCUCCAGGGAAACCCCUGGCAUGUUCAACAGCUCGCAGUCAAG", "binding signal (log2 fold change)": -0.0552}
{"sequence": "GGUCACGUCUCAAUCAACUCUUUCGCAGGAGUUUUCUCCUGGUAUUUCAACAGCUCGCAGUCAAG", "binding signal (log2 fold change)": -0.0277}
{"sequence": "GGUCACGUCUCAAUCAACUCUCUAGAGGGGGGGAAAACCCCUUUGCCCUCAUUAUCAACAGCUCGCAGUCAAG", "binding signal (log2 fold change)": -0.0197}
{"sequence": "GGUCACGUCUCAAUCAACUCUUUUUCAGGAGUUUACUCCUGCUUUUUCAACAGCUCGCAGUCAAG", "binding signal (log2 fold change)": 0.029}
{"sequence": "GGUCACGUCUCAAUCAACUCAAUCCCCAGGGAAAACCCUGGCAAAUUCAACAGCUCGCAGUCAAG", "binding signal (log2 fold change)": 0.134}
{"sequence": "GGUCACGUCUCAAUCAACUCAACUUCCAGGGAAAGCCCUGGCAUUCUCAACAGCUCGCAGUCAAG", "binding signal (log2 fold change)": 0.276}
{"sequence": "GGUCACGUCUCAAUCAACUCUUCUUCCAGGGAAAACCCUGGUUAUGUCAACAGCUCGCAGUCAAG", "binding signal (log2 fold change)": -0.117}
{"sequence": "GGUCACGUCUCAAUCAACUCUUCUUCAGGAGUUUUCUCCUGUUAAUUCAACAGCUCGCAGUCAAG", "binding signal (log2 fold change)": -0.225}
{"sequence": "GGUCACGUCUCAAUCAACUCUAUCCCAGGAGUUUACUCCUGCUUUCUCAACAGCUCGCAGUCAAG", "binding signal (log2 fold change)": -0.00403}
{"sequence": "GGUCACGUCUCAAUCAACUCAAACGAGGGGGGGAAAACCCCUUUGCCCUCAUAAUCAACAGCUCGCAGUCAAG", "binding signal (log2 fold change)": -0.186}
{"sequence": "GGUCACGUCUCAAUCAACUCAUUCGAGGGGGGGAAAACCCCUUUACCCUCAUCAUCAACAGCUCGCAGUCAAG", "binding signal (log2 fold change)": -0.0259}
{"sequence": "GGUCACGUCUCAAUCAACUCCUACGAGGGGGGGAAAACCCCUUUACCCUCAUUUUCAACAGCUCGCAGUCAAG", "binding signal (log2 fold change)": 0.0386}
{"sequence": "GGUCACGUCUCAAUCAACUCUAUCCCAGGAGUUUACUCCUGUUAUCUCAACAGCUCGCAGUCAAG", "binding signal (log2 fold change)": -0.152}
{"sequence": "GGUCACGUCUCAAUCAACUCAUCCCCCAGGGAAAACCCUGGUAAUUUCAACAGCUCGCAGUCAAG", "binding signal (log2 fold change)": 0.0912}
{"sequence": "GGUCACGUCUCAAUCAACUCUUUCCCAGGAGUUUCCUCCUGUUAUUUCAACAGCUCGCAGUCAAG", "binding signal (log2 fold change)": 0.0625}
{"sequence": "GGUCACGUCUCAAUCAACUCAUUCCCAGGAGUUUCCUCCUGCAUUCUCAACAGCUCGCAGUCAAG", "binding signal (log2 fold change)": 0.167}
{"sequence": "GGUCACGUCUCAAUCAACUCAAUCCCAGGAGUUUCCUCCUGUUUUCUCAACAGCUCGCAGUCAAG", "binding signal (log2 fold change)": 0.175}
{"sequence": "GGUCACGUCUCAAUCAACUCAACUUCCAGGGAAACCCCUGGCUUUUUCAACAGCUCGCAGUCAAG", "binding signal (log2 fold change)": -0.191}
{"sequence": "GGUCACGUCUCAAUCAACUCUUCUCCAGGAGUUUCCUCCUGUUAAUUCAACAGCUCGCAGUCAAG", "binding signal (log2 fold change)": 0.0103}
{"sequence": "GGUCACGUCUCAAUCAACUCAUCCUCCAGGGAAACCCCUGGCUAACUCAACAGCUCGCAGUCAAG", "binding signal (log2 fold change)": -0.0308}
{"sequence": "GGUCACGUCUCAAUCAACUCAUCCUCAGGAGUUUCCUCCUGCAUAUUCAACAGCUCGCAGUCAAG", "binding signal (log2 fold change)": 0.216}
{"sequence": "GGUCACGUCUCAAUCAACUCAUUCUCCAGGGAAAUCCCUGGCAAUCUCAACAGCUCGCAGUCAAG", "binding signal (log2 fold change)": 0.145}
{"sequence": "GGUCACGUCUCAAUCAACUCUUUUUCCAGGGAAAUCCCUGGCAUACUCAACAGCUCGCAGUCAAG", "binding signal (log2 fold change)": -0.12}
{"sequence": "GGUCACGUCUCAAUCAACUCAAUAGAGGGGGGGAAAACCCCUUUGCCCUCGGAAUCAACAGCUCGCAGUCAAG", "binding signal (log2 fold change)": -0.0932}
{"sequence": "GGUCACGUCUCAAUCAACUCUUCCCCCAGGGAAAUCCCUGGCUUACUCAACAGCUCGCAGUCAAG", "binding signal (log2 fold change)": 0.182}
{"sequence": "GGUCACGUCUCAAUCAACUCUAUCCCCAGGGAAACCCCUGGCAAACUCAACAGCUCGCAGUCAAG", "binding signal (log2 fold change)": 0.086}
{"sequence": "GGUCACGUCUCAAUCAACUCCCAAGAGGGGGGGAAAACCCCUUUACCCUCCACAUCAACAGCUCGCAGUCAAG", "binding signal (log2 fold change)": -0.0596}
{"sequence": "GGUCACGUCUCAAUCAACUCUAUCCCAGGAGUUUUCUCCUGUAUAUUCAACAGCUCGCAGUCAAG", "binding signal (log2 fold change)": 0.124}
{"sequence": "GGUCACGUCUCAAUCAACUCAUCCCCCAGGGAAAUCCCUGGCUUAUUCAACAGCUCGCAGUCAAG", "binding signal (log2 fold change)": -0.0823}
{"sequence": "GGUCACGUCUCAAUCAACUCAAGUCCAGGAGUUUACUCCUGUUUUCUCAACAGCUCGCAGUCAAG", "binding signal (log2 fold change)": 0.0764}
{"sequence": "GGUCACGUCUCAAUCAACUCCCUAGAGGGGGGGAAAACCCCUUUACCCUCCUAUUCAACAGCUCGCAGUCAAG", "binding signal (log2 fold change)": 0.0662}
{"sequence": "GGUCACGUCUCAAUCAACUCAUCCUCCAGGGAAACCCCUGGCAAAUUCAACAGCUCGCAGUCAAG", "binding signal (log2 fold change)": 0.14}
{"sequence": "GGUCACGUCUCAAUCAACUCUUUCCCCAGGGAAAUCCCUGGCAUUUUCAACAGCUCGCAGUCAAG", "binding signal (log2 fold change)": 0.115}
{"sequence": "GGUCACGUCUCAAUCAACUCUAUUUCAGGAGUUUUCUCCUGCUUACUCAACAGCUCGCAGUCAAG", "binding signal (log2 fold change)": 0.0169}
{"sequence": "GGUCACGUCUCAAUCAACUCAUCCCCAGGAGUUUACUCCUGUAAAUUCAACAGCUCGCAGUCAAG", "binding signal (log2 fold change)": -0.0298}
{"sequence": "GGUCACGUCUCAAUCAACUCUAUUUCCAGGGAAAUCCCUGGUUUUUUCAACAGCUCGCAGUCAAG", "binding signal (log2 fold change)": -0.106}
{"sequence": "GGUCACGUCUCAAUCAACUCACAAGAGGGGGGGAAAACCCCUUUACCCUCCAACUCAACAGCUCGCAGUCAAG", "binding signal (log2 fold change)": -0.107}
{"sequence": "GGUCACGUCUCAAUCAACUCUUAAGAGGGGGGGAAAACCCCUUUACCCUCAACAUCAACAGCUCGCAGUCAAG", "binding signal (log2 fold change)": -0.132}
{"sequence": "GGUCACGUCUCAAUCAACUCUAAAGAGGGGGGGAAAACCCCUUUACCCUCAAUAUCAACAGCUCGCAGUCAAG", "binding signal (log2 fold change)": 0.202}
{"sequence": "GGUCACGUCUCAAUCAACUCAUCUUCCAGGGAAAUCCCUGGUUAUUUCAACAGCUCGCAGUCAAG", "binding signal (log2 fold change)": -0.117}
{"sequence": "GGUCACGUCUCAAUCAACUCUAUCCCCAGGGAAAACCCUGGCUAAUUCAACAGCUCGCAGUCAAG", "binding signal (log2 fold change)": -0.126}
{"sequence": "GGUCACGUCUCAAUCAACUCAUUUUCCAGGGAAACCCCUGGUUUACUCAACAGCUCGCAGUCAAG", "binding signal (log2 fold change)": -0.00999}
{"sequence": "GGUCACGUCUCAAUCAACUCACUAGAGGGGGGGAAAACCCCUUUACCCUCAACUUCAACAGCUCGCAGUCAAG", "binding signal (log2 fold change)": -0.00597}
